The supplement of paper PMC3334620
Over roughly 33,000 sequences, “E-score (-0.5 to 0.5)” has its median near -0.056; the highest 2% begin near 0.38. The list shows a part of the results.

Target: Stb4 (UniProt P50104)
Test: PBM E-score (8-mer binding enrichment) (E-score (-0.5 to 0.5)); higher = stronger / more preferred TF binding; most listed sequences are background and not binding sites
Details: protein concentration: 200 nM; construct: GST-DNA-binding domain
Method in brief: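 Universal all-10-mer Agilent arrays, double-stranded by primer extension on fresh or once-stripped slides, were probed with about 100-200 nM GST-tagged yeast transcription factors made by PURExpress. Fluorescent anti-GST detected bound protein, and masliner normalised the scans. E-scores from the Universal PBM Analysis Suite were given to each ungapped eight-base word pooled with its reverse complement.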

Sequence | PBM E-score
GGTTCGTA | 0.0851
ATGTCGTA | -0.29
AGAACCTG | -0.168
GATTAAAC | -0.0253
CGTGTCCA | -0.21
TAACGATA | -0.0839
AGGGACTC | -0.122
AGGGCGGA | 0.225
ACCAAGTG | -0.251
GTCGGCGA | 0.126
TGATCGAA | -0.125
CAGCTCAG | -0.244
AATGGTGT | -0.107
CCTGTCCC | 0.0307
ATATTTCC | 0.332
TATGCCGA | 0.411
ACAGTGGC | -0.171
GGGCTGGA | -0.0498
CGTTCAAG | 0.0705
GCAGAGGA | -0.175
TCCCATAA | -0.109
AACACAGT | -0.0685
CAGTAACG | -0.07
TACCTCGA | -0.226
ATTTACCA | -0.0178

Sequence | PBM E-score
ACAGTTGC | 0.0539
CCGCTTCC | 0.299
CCACTTAA | -0.0908
AGGTGCTC | -0.148
AAGAGATC | -0.0109
CATCTACG | 0.037
AAACTCGC | -0.0551
AGCCCCAC | -0.0851
AGTGGAGC | -0.233
ATAAATCA | -0.229
CGGAGCTA | 0.21
AGGTGGCA | -0.0654
TATGCCAA | -0.209
CCGGTGAA | 0.203
AACTTGAC | -0.175
CTACGGAA | 0.222
CCCTGCAC | -0.0965
GCATTAGA | -0.0482
GCGCCGAC | 0.195
GATACCGA | 0.291
GAGAGTAC | -0.141
GGATACCA | 0.213
AAGGTCGT | -0.257
AGGGAGTC | -0.203
AAAGCCTC | -0.00345

Sequence | PBM E-score
CCATTGCA | -0.322
CAATTGAC | -0.153
CTCGAACA | -0.237
ACCGACCG | 0.219
AGTTCTAC | -0.25
CCGTAGCC | 0.102
ACTTACTG | -0.0168
CCACCGCC | -0.0563
ATTTGGCA | -0.19
GAGACTCA | -0.119
GCCTGTTA | -0.103
AGATGAAG | -0.0847
GGCAACCA | 0.0103
ACTCATGG | -0.198
ATTTCTTC | 0.0792
AGGGGCTG | -0.203
CTATCCTA | 0.0276
CGGTAATC | 0.29
AGCATCCA | -0.115
GCAAATCC | 0.139
ATGGTTAG | 0.0424
CTCCACAC | -0.0586
AACCGGAG | 0.23
CTGCAAAG | -0.28
GGGGAGCA | -0.1

Sequence | PBM E-score
GCCGCCAC | -0.0982
CTGCTTAA | -0.0228
CTGCCCAG | -0.0952
CCAGTTAG | -0.273
CTGAAGTA | -0.102
ACAACGTG | -0.147
CAGCTAAG | -0.386
GGCTAGAC | 0.114
CGGCAACG | 0.285
AACGGCTT | 0.0277
CTCATGTC | -0.129
GCAGGTGA | -0.137
AGCCATGG | -0.307
ATCGGTTC | 0.261
AGCCTTCC | 0.0678
TACGGCTA | 0.142
CAGATGAG | -0.253
CTAGGGCC | -0.224
CCGATCAC | 0.287
TAAACCGA | 0.309
CGTGGGGA | -0.0676
AGGGCCAT | -0.253
AGCCCTGC | -0.234
GTTCGTCA | -0.118
AGCTCCGA | 0.371

Sequence | PBM E-score
CCGCTAAG | 0.0575
CGGGCCCG | 0.419
AGTAGATG | -0.153
CAGGCCAC | -0.134
CAGACGCG | -0.152
GGGAGTAA | 0.114
AGGGGTAC | -0.0696
CTATTCAA | -0.178
GTGACACA | 0.0185
ACCGGGAA | 0.335
AGCACGCG | -0.0461
ACTCATTG | -0.0916
AGCTTGGC | -0.17
GGGGCCAA | -0.14
AGAGCTGG | -0.00157
GGAGCCCA | -0.203
GACTGTAA | -0.137
GCCTTTGA | -0.0711
ACTTAGGA | -0.382
GTAGTTAA | -0.0019
GCTATAGA | -0.0826
CGGACCTC | 0.124
CCGGAGTC | 0.257
CGCTTGGC | -0.246
CGAGACTA | 0.0386

Sequence | PBM E-score
AGTTTAAC | -0.108
GATGCGGC | 0.0547
AGTAGACC | -0.0468
CTGCCTGC | -0.152
CACCCCTA | -0.117
GTAGCCCA | -0.273
GCAGGGGA | -0.11
CGGAACGC | 0.407
AGCCTGGC | -0.26
ATACCCTA | -0.224
CGTTGCAA | -0.109
AATCTCTA | -0.247
GCTAAGAC | -0.0991
CTGTATCC | 0.215
CCGTTGGC | 0.147
ATAAACGC | -0.11
CAAGCTCG | 0.273
CACCGCCG | 0.0771
CAATATGA | -0.0295
CTATATTC | -0.0432
ACGAGGCT | -0.0598
CTAATGGA | -0.106
CCCCGATC | 0.292
GGGCATGA | -0.248
GTGTTTTA | -0.117

Sequence | PBM E-score
CCTCCGGA | 0.307
AACGAGGT | -0.293
AACACCAG | -0.242
CCGAGCAG | 0.377
ATTAACCA | -0.136
AACTGGTA | 0.00946
TTTCAAAA | -0.0201
TAGGGGGA | -0.242
GTTCCGAA | 0.479
AGTACACT | -0.153
TCAGCAGA | -0.141
CGCTCGTA | -0.176
TAACTGCA | -0.243
CTACAATA | -0.0313
AAGTGAGA | -0.202
TAGCGGGA | 0.0959
GCTACAAC | -0.0217
ATTCTCTC | -0.0327
ATCATCAA | -0.0541
TCGATGAA | -0.0646
GTCCCTCA | -0.295
CGGTCTCA | 0.0227
GTCAAGCA | -0.119
AGTTAAAT | -0.0935
ATTCAACC | 0.00448

Sequence | PBM E-score
TAAGTGGA | -0.106
AGTCGCTG | -0.325
CCGGAAGC | 0.395
ATCTCCAA | -0.151
ACAGTAAG | -0.162
ATAATGAT | -0.15
CTTTCTCA | -0.0478
GAAAAAAC | 0.101
CTTGATGC | -0.241
AGATGGAG | -0.114
AGGTGCCA | -0.164
CACCTGGC | -0.124
GAGTAGGC | -0.104
ATACGGTA | 0.0261
ATACCACA | 0.0431
GCGGTAGC | 0.0408
TCGGCAGA | 0.41
ACCCAACC | -0.0362
AAGAACTT | 0.0294
GAGACGAA | 0.0232
CGAGACCC | 0.286
CGTGTTCC | 0.282
CTTCGTTC | -0.215
GCGTCTCC | -0.0256
ACCGCTTC | 0.0283

Sequence | PBM E-score
CCAGGTGA | -0.352
AGGGGGAC | -0.225
CCAATCTC | 0.0152
ACCTAACC | 0.101
ATGGTATG | -0.0811
GTATCTTA | 0.0901
CCAAATAA | -0.151
AAATCAAG | -0.0968
ACATGACA | -0.0109
CTCCTTTC | 0.041
CAGCGTAC | -0.0549
AAGCTTTA | -0.219
ACACTTCC | 0.246
GACCCAAC | -0.116
ACCGTGTC | 0.142
CCAAGGCA | -0.123
GGGTCGAC | 0.0843
CTCCGGCA | 0.337
AATGTCGC | -0.0427
ATTTCTCA | -0.239
TCAAATAA | -0.0118
ATGGGTTC | -0.152
AGGGTATA | -0.029
ACTGTAGA | -0.184
CAGGTCGC | -0.295

Sequence | PBM E-score
CGGGGTAC | 0.13
GCCTATCA | -0.0989
ATGTGATC | 0.102
CGTATAAA | 0.168
GGTCGCAA | 0.0482
GCGGGGGA | 0.0109
ATCACTTG | -0.176
CCATCACC | -0.0824
ATATAGGA | -0.225
CCACAAGC | -0.128
CAACGCCG | 0.109
ACTCAGTA | 0.0263
GACTCAGC | -0.191
CTACTCAA | -0.278
AAGGCACC | 0.00752
CCGTGTAA | 0.095
GCGGGGCA | 0.0728
CAGCTTTC | -0.0811
AACAGAAG | -0.176
CTACGCGC | 0.0736
GCGATTGA | -0.113
TAAGGCCA | -0.139
GCGGTGAC | 0.0445
TCTGCGAA | -0.386
ACAGTTCT | -0.0692

Sequence | PBM E-score
CGAGCAAG | -0.0695
ACGTGTCA | -0.139
GAGGGTAA | -0.0695
ACCTCGGG | 0.421
ACTCAATG | -0.102
ACGATTCT | -0.05
GTTTTATA | 0.0809
ACAAAACC | 0.0673
GACAGATC | 0.0617
CATTTATC | -0.131
AACTCCCT | -0.145
GACGACCC | -0.126
GCATCTAC | -0.0708
CTGCTCTC | -0.164
CGCCGTAC | 0.0698
ACTCCGAG | 0.395
TGAACTAA | -0.18
AATGTACC | 0.102
CCTACTCA | -0.131
CGTTTCCC | 0.0767
CTCGAGAG | -0.201
GGATAACC | 0.151
AAGTTATC | -0.0752
ACAGTGAA | -0.178
GACCTGAC | -0.169

Sequence | PBM E-score
AGAGGGCG | -0.0668
GTAGGAGA | -0.148
CCCAGTAG | -0.161
GGCATAAA | 0.0687
AAAGACAG | -0.209
GAGGCCCA | -0.0476
AGCCCCTA | -0.139
AAGCGGAG | -0.0556
CTCCGTAA | 0.0582
CGCACAGA | -0.153
CGCGACAG | -0.103
CCCATCTC | -0.00926
CCCCCAAA | -0.339
CCTCTGAG | -0.116
TACCGCAA | 0.101
ACACGTTG | -0.211
ACATCCCC | 0.101
AGAAACGA | 0.00044
ATGCCCCG | 0.173
GAGATCGC | -0.143
ACGGTGAG | -0.139
CCATGGTA | -0.17
CATCCTGA | 0.0103
TCTAATCA | 0.0455
CATGCTTA | -0.188

Sequence | PBM E-score
AAGCGTCT | -0.0559
CTACGTAG | -0.0751
GGATTTTA | 0.105
AAATCCTG | -0.159
CACCGTAC | -0.116
CCTAAAGA | -0.259
ACGAACAC | 0.0555
AGTGGCTA | -0.11
GAGATTCA | -0.045
TGGAAACA | -0.0929
GTAATCGA | -0.0379
TATTATCA | -0.0339
CAATGACG | -0.131
AGGCCTTA | -0.225
ATGTAAGC | 0.00776
AAGATCTT | -0.0117
CTCTGCAG | -0.225
CGGCGTCA | 0.0505
CTTTTTAA | -0.226
CAGGACTA | -0.123
CGATTTCA | -0.0895
CAACTATG | -0.133
CCCTTGAC | -0.0794
CTCGTTTA | -0.0597
CGTTTCCA | 0.0158

Sequence | PBM E-score
CGGAACTC | 0.401
CCAGCCGA | 0.322
ACTATCAA | 0.0239
ACAAGCGG | 0.0654
ATCATGAC | -0.181
ATGAGAAC | -0.00558
ACCGTAAT | -0.00014
GATGTCAC | -0.0155
AATAGACC | 0.138
GCAATGGC | -0.0123
TCAAGGCA | -0.294
CCTCGGAG | 0.408
AGCCAGAA | -0.133
AACTGAAG | -0.192
AGACAGTC | -0.0616
CAATATTC | 0.106
CTCATTTA | 0.0328
ATGCGGGG | 0.0133
CCAGGAAC | -0.0439
